Assay results published in ChEMBL document CHEMBL4888484, “Replenishing the malaria drug discovery pipeline: Screening and hit evaluation of the MMV Hit Generation Library 1 (HGL1) against asexual blood stage Plasmodium falciparum ,using a nano luciferase reporter read-out” (2022).
Screen size: about 150,000 compounds; about 540 (0.36%) showed an effect of 50% or more. The list shows a part of the results.

System: Plasmodium falciparum
Assay: Primary screen in NF54 nanoGlo assay, in single point, at 2uM, 72h; a lower Z score goes with more inhibition
Assay type: functional, Erythrocyte
Conditions: timepoint 72 hour

**Q.** How did the “% Inhibition” value turn out when `Cc1c[nH]c(CN2CC[C@H](NC(=O)c3ccccc3)[C@@H](O)C2)c(C)c1=O` was run?
**A.** -17%

**Q.** And the Z score?
**A.** 1.56

**Q.** `Cc1[nH]c2ccccc2c1CCn1ccnc1-c1ccccc1C(=O)O` was tested. Which “% Inhibition” value did it give?
**A.** -8%

**Q.** What about the Z score of the same compound?
**A.** 0.89

**Q.** `CCc1nc(C)ncc1C(=O)N[C@@H](C)C(C)(C)C` was tested. Which “% Inhibition” value did it give?
**A.** -10%

**Q.** What about the Z score of the same compound?
**A.** 1.01

**Q.** What does the source list for `COc1ccc(N[C@@H](C)c2ccc(NC(C)=O)cc2)cn1`?
**A.** % Inhibition: -5%; Z score: 0.58

**Q.** For `O=C(Nc1ccc(N2CCOCC2)cc1)[C@@H]1CC=CCC1`, which “% Inhibition” value is on record?
**A.** 34%

**Q.** And the Z score?
**A.** -3.81

**Q.** How did the “% Inhibition” value turn out when `CC(C)c1noc([C@@H]2CCCN2S(=O)(=O)c2ccc3c(c2)CCC(=O)N3)n1` was run?
**A.** 9%

**Q.** What about the Z score of the same compound?
**A.** -1.12

**Q.** For `CCCc1c(C(=O)N2CCN(c3nc4cc(C)c(C)cc4nc3C(=O)OCC)CC2)cnn1-c1ccccc1`, which “% Inhibition” value is on record?
**A.** -3%

**Q.** What about the Z score of the same compound?
**A.** 0.33

**Q.** Which “% Inhibition” value does the source give for `CCOC(=O)C[C@H]1COCCN1C(=O)c1cncn1C` here?
**A.** -12%

**Q.** What about the Z score of the same compound?
**A.** 2.2

**Q.** Which results are given for `O=C1C[C@H](c2ccc(O)c(Cl)c2)c2c(n(C3CCCCCCC3)[nH]c2=O)N1`?
**A.** % Inhibition: 27%; Z score: -3.02

**Q.** `CCc1cccc2sc(NCCCN3CCOCC3)nc12` was tested. Which “% Inhibition” value did it give?
**A.** 4%

**Q.** What about the Z score of the same compound?
**A.** -0.51

**Q.** `Cc1nc(-n2cnnc2)ccc1-c1ccc(C(=O)NC[C@H]2CCCO2)cc1` was tested. Which “% Inhibition” value did it give?
**A.** -3%

**Q.** And the Z score?
**A.** 0.37

**Q.** What does the source list for `CCn1cc(C)c(NOCCCN2C(=O)c3ccccc3C2=O)nc1=O`?
**A.** % Inhibition: -4%; Z score: 0.77

**Q.** What does the source list for `CN(C)c1cc(NC(=O)C(=O)Nc2cccc(Oc3ccnc4ccccc34)c2)cc(C(F)(F)F)c1`?
**A.** % Inhibition: -18%; Z score: 1.89

**Q.** For `CC(=O)N(Cc1ccccn1)c1ccc(Cl)cc1`, which “% Inhibition” value is on record?
**A.** -2%

**Q.** And the Z score?
**A.** 0.2

**Q.** Which “% Inhibition” value does the source give for `CCC(C)NC(=O)c1cn2c3c(cccc3c1=O)CC2C` (configuration not stated) here?
**A.** 4%

**Q.** What about the Z score of the same compound?
**A.** -0.47

**Q.** `Cc1cc(-c2nc(-c3ccncc3)no2)c(=O)[nH]c1C` was tested. Which “% Inhibition” value did it give?
**A.** -13%

**Q.** What about the Z score of the same compound?
**A.** 1.57

**Q.** Which “% Inhibition” value does the source give for `c1cc(CNCCOc2ccc3c(c2)OCO3)c2[nH]ncc2c1` here?
**A.** 4%

**Q.** What about the Z score of the same compound?
**A.** -0.72

**Q.** With `CCCn1nccc1-c1ccc(-n2cnnc2)nc1C` as the compound, how does the “% Inhibition” value read?
**A.** -9%

**Q.** What about the Z score of the same compound?
**A.** 1.61

**Q.** Which “% Inhibition” value does the source give for `O=C1N[C@@H](c2cnc(N3CCOCC3)nc2)Nc2ncccc21` here?
**A.** -13%

**Q.** And the Z score?
**A.** 1.22

**Q.** What does the source list for `CCCCN(CC(N)=O)CC(=O)N1CCC[C@H](C)C1`?
**A.** % Inhibition: -9%; Z score: 0.87

**Q.** What does the source list for `COc1ccc2c(-c3c(-c4ccccc4)ncn3Cc3ncn[nH]3)cn(C)c2c1`?
**A.** % Inhibition: -1%; Z score: 0.06

**Q.** For `CCc1nc(Cn2nnnc2C(C)(C)C)cs1`, which “% Inhibition” value is on record?
**A.** -5%

**Q.** What about the Z score of the same compound?
**A.** 0.43

**Q.** Which results are given for `Cc1ccc(N2CCNC2=O)cc1NC(=O)N1Cc2cnn(C)c2CC(C)(C)C1`?
**A.** % Inhibition: -13%; Z score: 2.61

**Q.** With `Cc1cccc(CN2CCn3c(nn(C)c3=O)C2)c1` as the compound, how does the “% Inhibition” value read?
**A.** -21%

**Q.** What about the Z score of the same compound?
**A.** 3.6

**Q.** For `Cc1c([C@H](C)NC(=O)c2cncn2C)cnn1C`, which “% Inhibition” value is on record?
**A.** -4%

**Q.** And the Z score?
**A.** 0.79

**Q.** For `O=C(Nc1nocc1C1CC1)c1ccnc(C2CC2)n1`, which “% Inhibition” value is on record?
**A.** -16%

**Q.** What about the Z score of the same compound?
**A.** 2.11

**Q.** Which results are given for `CN(CC(=O)Nc1sc2c(c1C#N)CCC2)Cc1cnn(Cc2ccccc2)c1`?
**A.** % Inhibition: 13%; Z score: -1.57

**Q.** Which results are given for `CCN(CC)[C@@H](C)CNS(=O)(=O)c1cnn(C)c1`?
**A.** % Inhibition: -2%; Z score: 0.22

**Q.** `CCN(CC)c1ccc(C(=O)N2C[C@H](c3cccc(OC)c3)[C@@H](N)C2)cc1` was tested. Which “% Inhibition” value did it give?
**A.** -1%

**Q.** And the Z score?
**A.** 0.13

**Q.** Which “% Inhibition” value does the source give for `Cc1cccc(CC(CNC(=O)C2CC2C)C(=O)O)c1` (configuration not stated) here?
**A.** -13%

**Q.** And the Z score?
**A.** 1.46

**Q.** How did the “% Inhibition” value turn out when `O=C(c1cccc2ccccc12)N1CC[C@@]2(CCCN(CC3CC3)C2)C1` was run?
**A.** 7%

**Q.** What about the Z score of the same compound?
**A.** -0.91

**Q.** Which results are given for `CC(C)(C)CC(=O)N[C@@H]1CC[C@H]2CCOc3ccccc3C(=O)N3CCN(Cc4cccnc4)C[C@H]3C(=O)NC[C@H]1O2`?
**A.** % Inhibition: -4%; Z score: 0.56

**Q.** With `CC(C)C(=O)N1CC[C@H](NC2Cc3ccccc3C2)C1` as the compound, how does the “% Inhibition” value read?
**A.** -5%

**Q.** What about the Z score of the same compound?
**A.** 0.5

**Q.** What does the source list for `c1cn(-c2nc(-n3ccnc3)nc(-n3ccnc3)n2)cn1`?
**A.** % Inhibition: 4%; Z score: -0.54

**Q.** Which “% Inhibition” value does the source give for `C[C@@H](c1ccco1)N(C)Cc1c[nH]nc1-c1ccc(F)cc1F` here?
**A.** -5%

**Q.** And the Z score?
**A.** 0.68

**Q.** `CCn1cc(S(=O)(=O)Nc2ncc(S(=O)(=O)NC(C)(C)C)s2)cn1` was tested. Which “% Inhibition” value did it give?
**A.** -5%

**Q.** And the Z score?
**A.** 1.01

**Q.** For `CCCCc1nc(CN2CCn3nc(C#N)cc3C2)c[nH]1`, which “% Inhibition” value is on record?
**A.** 4%

**Q.** What about the Z score of the same compound?
**A.** -0.52

**Q.** Which results are given for `c1cnc(NC2CCN(c3ncnc4c3CCNC4)CC2)nc1`?
**A.** % Inhibition: 0%; Z score: 0.02

**Q.** Which “% Inhibition” value does the source give for `N[C@@H](CCc1ccccc1)c1ccc2c(c1)CCO2` here?
**A.** 7%

**Q.** What about the Z score of the same compound?
**A.** -1.01

**Q.** How did the “% Inhibition” value turn out when `CC(CNC(=O)c1ccc(CN2CC(=O)N3CCCC3C2=O)cc1)c1ccccc1` (configuration not stated) was run?
**A.** -13%

**Q.** What about the Z score of the same compound?
**A.** 2.48

**Q.** `CCc1nocc1CN1CCn2cncc2C1` was tested. Which “% Inhibition” value did it give?
**A.** 2%

**Q.** What about the Z score of the same compound?
**A.** -0.23
